Our source for the cytotoxicity call and growth inhibition call values is the antibiotic and cytotoxicity screens of Wong et al. (2023).

The other results are listed elsewhere or left out.

Test [1] deals with HSkMC (human skeletal muscle cells). Briefly: cytotoxicity call (relative viability < 0.9). As to conditions: 10 µM.
Test [2] relates to HepG2. Briefly: cytotoxicity call (relative viability < 0.9). As to conditions: 10 µM.
Test [3] has as its system S. aureus RN4220. Briefly: growth inhibition call (relative growth <= 0.2). As to conditions: 50 µM.

Turning to `Cc1cc(C2CCCCC2)n(O)c(=O)c1.NCCO`, the cytotoxicity call in test [1] is “inactive”. Further, the cytotoxicity call in test [2] was “active”. For the same compound, the growth inhibition call in test [3] was “active”.

With `C[C@@H]1CN([C@@H](C)CO)C(=O)c2cccc(NC(=O)Nc3cccc4ccccc34)c2O[C@H]1CN(C)S(=O)(=O)c1ccccc1`, the cytotoxicity call in test [1] and in test [2] was “inactive” each time. The growth inhibition call in test [3] is “inactive”.

Regarding `C[C@H](CO)N1C[C@H](C)[C@H](CN(C)CC2CCCCC2)Oc2ccc(NC(=O)Nc3ccc(C(F)(F)F)cc3)cc2CC1=O`, the cytotoxicity call in test [1] and in test [2] was “active” throughout. Moreover, in test [3], the growth inhibition call was “inactive”.

As for `C[C@@H]1CN([C@H](C)CO)C(=O)c2cccc(NC(=O)C3CCCCC3)c2O[C@@H]1CN(C)C(=O)Nc1cccc2ccccc12`, the cytotoxicity call in test [1] and in test [2] was “inactive” in each case. In addition, the growth inhibition call in test [3] is “inactive”.

Regarding `C[C@@H]1CN([C@H](C)CO)C(=O)c2cccc(NS(=O)(=O)c3ccccc3)c2O[C@@H]1CN(C)S(=O)(=O)c1ccc(F)cc1`, the cytotoxicity call in test [1] and in test [2] was “inactive” each time. Also, the growth inhibition call in test [3] is “inactive”.

On to `CCCNC(=O)N1C[C@@H](O)COC[C@@H]2O[C@@H](CC(=O)NCCCN3CCOCC3)CC[C@H]21`, for which the cytotoxicity call in test [1] and in test [2] was “inactive” throughout. Further, the growth inhibition call in test [3] was “inactive”.

Take `Cc1noc(C)c1S(=O)(=O)Nc1ccc2c(c1)C(=O)N([C@H](C)CO)C[C@@H](C)[C@@H](CN(C)S(=O)(=O)c1ccc(F)cc1)O2`: the cytotoxicity call in test [1] and in test [2] was “inactive” throughout. The growth inhibition call in test [3] was “inactive”.

As to `C[C@@H]1CN([C@@H](C)CO)C(=O)c2c(c3ccccc3n2C)-c2ccccc2CO[C@@H]1CN(C)C(=O)Nc1cccc(C(F)(F)F)c1`, the cytotoxicity call in test [1] and in test [2] was “inactive” each time. Also, the growth inhibition call in test [3] is “inactive”.

On to `COc1ccc(CN(C)C[C@@H]2Oc3c(NC(=O)CCCCCC(=O)Nc4ccccc4N)cccc3C(=O)N([C@@H](C)CO)C[C@H]2C)cc1`, for which the cytotoxicity call in test [1] and in test [2] was “inactive” each time. For the same compound, the growth inhibition call in test [3] was “inactive”.

Consider `Cc1noc(C)c1NC(=O)Nc1cccc2c1O[C@H](CN(C)S(=O)(=O)c1cn(C)cn1)[C@H](C)CN([C@H](C)CO)C2=O`, for which the cytotoxicity call in test [1] and in test [2] was “inactive” in each case. In addition, the growth inhibition call in test [3] is “inactive”.

On to `CN1C(=O)c2cc(NS(C)(=O)=O)ccc2OC[C@H]2O[C@@H](CC(=O)N3CCOCC3)CC[C@H]21`, for which the cytotoxicity call in test [1] and in test [2] was “inactive” throughout. In addition, in test [3], the growth inhibition call is “inactive”.

In the case of `C[C@@H]1CCCCO[C@@H](CN(C)S(=O)(=O)c2ccc(F)cc2)[C@@H](C)CN([C@H](C)CO)C(=O)c2cc(NC(=O)c3ccccc3)ccc2O1`, the cytotoxicity call in test [1] and in test [2] was “inactive” throughout. In addition, in test [3], the growth inhibition call was “inactive”.

As to `CC(C)c1nc(CN(C)C(=O)N[C@H](C(=O)N[C@@H](Cc2ccccc2)C[C@H](O)[C@H](Cc2ccccc2)NC(=O)OCc2cncs2)C(C)C)cs1`, the cytotoxicity call in test [1] and in test [2] was “inactive” each time. Besides, in test [3], the growth inhibition call was “inactive”.

As to `COCCOC(=O)N1C(=O)[C@@]2(c3cc(C#Cc4ccc(OC)cc4)ccc31)[C@H](c1ccccc1OCCO)N1[C@H](c3ccccc3)[C@H](c3ccccc3)OC(=O)[C@H]1[C@@H]2C(=O)N1CCN(c2ncccn2)CC1`, the cytotoxicity call in test [1] and in test [2] was “inactive” throughout. Besides, the growth inhibition call in test [3] is “inactive”.

Take `Cc1cc(C(=O)Nc2cccc3c2O[C@@H](CN(C)S(=O)(=O)c2cn(C)cn2)[C@H](C)CN([C@@H](C)CO)C3=O)n(C)n1`: the cytotoxicity call in test [1] and in test [2] was “inactive” throughout. In addition, the growth inhibition call in test [3] is “inactive”.

In the case of `COc1ccc2cccc(CCNC(C)=O)c2c1`, the cytotoxicity call in test [1] and in test [2] was “inactive” each time. The growth inhibition call in test [3] was “inactive”.

In the case of `Cc1noc(C)c1S(=O)(=O)N(C)C[C@@H]1Oc2ccc(NC(=O)C3CC3)cc2CC(=O)N([C@@H](C)CO)C[C@@H]1C`, the cytotoxicity call in test [1] and in test [2] was “inactive” each time. Moreover, the growth inhibition call in test [3] was “inactive”.

With `CC(=O)OC1CC(OC(C)=O)C2(C)C(CC(OC(C)=O)C3(C)C2CCC2(C)C(c4ccoc4)OC(=O)C4OC423)C1(C)C` (stereo unspecified), the cytotoxicity call in test [1] and in test [2] was “inactive” in each case. For the same compound, the growth inhibition call in test [3] is “inactive”.

For the compound `CCCCCCCCCCCCCCCC[N+](C)(C)Cc1ccccc1.[Cl-]`, the cytotoxicity call in test [1] and in test [2] was “active” in each case. Moreover, the growth inhibition call in test [3] is “inactive”.

With `COc1ccc(CN(C)C[C@H]2Oc3c(NS(C)(=O)=O)cccc3C(=O)N([C@H](C)CO)C[C@H]2C)cc1`, the cytotoxicity call in test [1] and in test [2] was “inactive” each time. In addition, the growth inhibition call in test [3] was “inactive”.

For the compound `C[C@@H]1CCCCO[C@@H](CN(C)S(C)(=O)=O)[C@H](C)CN([C@@H](C)CO)C(=O)c2cc(NC(=O)Nc3cccc4ccccc34)ccc2O1`, the cytotoxicity call in test [1] and in test [2] was “inactive” in each case. In test [3], the growth inhibition call was “inactive”.

On to `C[C@H](CO)N1C[C@H](C)[C@H](CN(C)S(=O)(=O)c2cccc(F)c2)Oc2ncc(C#CCN(C)C)cc2C1=O`, for which the cytotoxicity call in test [1] and in test [2] was “inactive” each time. In addition, the growth inhibition call in test [3] was “inactive”.

With `Cc1ccc(S(=O)(=O)Nc2ccc3c(c2)C(=O)N([C@@H](C)CO)C[C@@H](C)[C@H](CN(C)Cc2ccc(Cl)c(Cl)c2)O3)cc1`, the cytotoxicity call in test [1] and in test [2] was “inactive” throughout. Also, the growth inhibition call in test [3] is “inactive”.

For the compound `COc1ccc(S(=O)(=O)Nc2cccc3c2O[C@@H](CN(C)S(=O)(=O)c2cccs2)[C@H](C)CN([C@@H](C)CO)C3=O)cc1`, the cytotoxicity call in test [1] and in test [2] was “inactive” in each case. Also, the growth inhibition call in test [3] was “inactive”.

Consider `COc1cccc(S(=O)(=O)N2C[C@@H](O)COC[C@@H]3O[C@H](CC(=O)N4CCOCC4)CC[C@H]32)c1`, for which the cytotoxicity call in test [1] and in test [2] was “inactive” in each case. Besides, in test [3], the growth inhibition call is “inactive”.

With `COc1cccc(OC)c1C(=O)O[C@H]1[C@@H]2OC(=O)[C@@H](Cc3ccc4ccccc4c3)C/C=C/C[C@H](Cc3ccc4ccccc4c3)C(=O)O[C@H]2[C@@H](OC)O[C@@H]1CO`, the cytotoxicity call in test [1] and in test [2] was “inactive” each time. For the same compound, in test [3], the growth inhibition call is “inactive”.

For the compound `CCC(=O)NCc1nc(C)cc(N(C)C)n1`, the cytotoxicity call in test [1] and in test [2] was “inactive” each time. Besides, in test [3], the growth inhibition call is “inactive”.
